Assay results: the supplement of paper PMC7125110
± gives the standard error. Variants at the floor of the assay are shown more often than the library holds them.

B1: glmS ribozyme (parent)
chain: AUAAAAGCGCCAGAACUACAGAAAUGUAGUUGACGAGGAGGAGGUUUAUCGAAUUUUCGGCGGAUGCCUCCAAA

Key:
Settings in all cases: with glucosamine-6-phosphate
glucosamine-6-phosphate [1] = variants of: B1; test: self-cleavage kobs at 640 uM GlcN6P; higher = faster cleavage; RNA array
In short: (§1)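 kobs was derived by fitting per-tile medians to one- or two-exponential decays after normalising signals to baseline and to non-cleaving reference variants. Those signals came from barcoded ribozyme variants transcribed in situ by E. coli RNA polymerase on sequenced MiSeq chips, followed through a hybridised Cy3 probe at 37 °C and imaged over ~14 h. Glucosamine-6-phosphate (40 μM to 10 mM) in HEPES/KCl/Mg(OAc)2 buffer was flowed in. Weighted Michaelis–Menten fits across concentrations then gave kcat and KM.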

glucosamine-6-phosphate [2] = variants of: B1; test: self-cleavage kobs at 2500 uM GlcN6P; higher = faster cleavage; RNA array
In short: as §1

glucosamine-6-phosphate [3] = variants of: B1; test: self-cleavage kobs at 160 uM GlcN6P; higher = faster cleavage; RNA array
In short: as §1

glucosamine-6-phosphate [4] = variants of: B1; test: self-cleavage kobs at 10000 uM GlcN6P; higher = faster cleavage; RNA array
In short: as §1

Row | Variant | self-cleavage kobs at 640 uM GlcN6P (glucosamine-6-phosphate [1]) | self-cleavage kobs at 2500 uM GlcN6P (glucosamine-6-phosphate [2]) | self-cleavage kobs at 160 uM GlcN6P (glucosamine-6-phosphate [3]) | self-cleavage kobs at 10000 uM GlcN6P (glucosamine-6-phosphate [4])
1 | A6C G41A U69A C71G | < 1e-05 s⁻¹ | < 1e-05 s⁻¹ | – | –
2 | A6C G41U A42C U57C | < 1e-05 s⁻¹ | – | – | –
3 | A6C G43C U46A | < 1e-05 s⁻¹ | – | – | –
4 | A6C G51A C71U | < 1e-05 s⁻¹ | – | – | –
5 | A6C U31C G62A | < 1e-05 s⁻¹ | – | – | –
6 | A6C U45C | < 1e-05 s⁻¹ | – | – | –
7 | A6C U46C U49A U65G | < 1e-05 s⁻¹ | < 1e-05 s⁻¹ | – | –
8 | A6C U47C U54G | < 1e-05 s⁻¹ | – | – | –
9 | A6C U55G G60U G62C | < 1e-05 s⁻¹ | < 1e-05 s⁻¹ | < 1e-05 s⁻¹ | –
10 | A6C U69G | 0.000265 ± 0.00011 s⁻¹ | – | – | –
11 | A6G A12G A36C U46G | < 1e-05 s⁻¹ | – | – | –
12 | A6G A12U G43A C50U C68A | < 1e-05 s⁻¹ | < 1e-05 s⁻¹ | – | –
13 | A6G A14C G38U | < 1e-05 s⁻¹ | – | – | < 1e-05 s⁻¹
14 | A6G A14G U49C U55G C67G | < 1e-05 s⁻¹ | < 1e-05 s⁻¹ | – | –
15 | A6G A14U G44A | < 1e-05 s⁻¹ | < 1e-05 s⁻¹ | – | –
16 | A6G A15C U47A A53C | < 1e-05 s⁻¹ | < 1e-05 s⁻¹ | – | –
17 | A6G A15U U56G C70G | < 1e-05 s⁻¹ | – | – | –
18 | A6G A33G G59C G62C C67A | < 1e-05 s⁻¹ | – | – | –
19 | A6G A36C C50G | 0.000132 ± 3.4e-05 s⁻¹ | – | – | –
20 | A6G A36G G44U C61U | < 1e-05 s⁻¹ | < 1e-05 s⁻¹ | < 1e-05 s⁻¹ | –
21 | A6G A39G A52G A53U | < 1e-05 s⁻¹ | – | < 1e-05 s⁻¹ | –
22 | A6G A64C C71U | < 1e-05 s⁻¹ | < 1e-05 s⁻¹ | < 1e-05 s⁻¹ | –
23 | A6G C8G U30G U31C G44A U54G | < 1e-05 s⁻¹ | – | < 1e-05 s⁻¹ | –
24 | A6G C8U C16A | < 1e-05 s⁻¹ | < 1e-05 s⁻¹ | – | –
25 | A6G C8U C58A | < 1e-05 s⁻¹ | – | – | –

Row | Variant | self-cleavage kobs at 640 uM GlcN6P (glucosamine-6-phosphate [1]) | self-cleavage kobs at 2500 uM GlcN6P (glucosamine-6-phosphate [2]) | self-cleavage kobs at 160 uM GlcN6P (glucosamine-6-phosphate [3]) | self-cleavage kobs at 10000 uM GlcN6P (glucosamine-6-phosphate [4])
26 | A6G C10G G37C G40C | < 1e-05 s⁻¹ | < 1e-05 s⁻¹ | – | –
27 | A6G C10G G37C G43A C58A C71A | < 1e-05 s⁻¹ | – | – | < 1e-05 s⁻¹
28 | A6G C10U A14G | < 1e-05 s⁻¹ | – | – | –
29 | A6G C10U C11A G32A G43U | < 1e-05 s⁻¹ | – | – | –
30 | A6G C10U U30C G41C G44C | < 1e-05 s⁻¹ | – | – | –
31 | A6G C11A G35A | < 1e-05 s⁻¹ | – | – | –
32 | A6G C11A U55G C68G | < 1e-05 s⁻¹ | – | – | –
33 | A6G C11A U56A | < 1e-05 s⁻¹ | – | – | –
34 | A6G C11G C16U G44A C71A | < 1e-05 s⁻¹ | – | – | –
35 | A6G C11G C34U U45G | < 1e-05 s⁻¹ | – | – | –
36 | A6G C11G G13C | < 1e-05 s⁻¹ | – | < 1e-05 s⁻¹ | –
37 | A6G C11U A36U | < 1e-05 s⁻¹ | – | – | –
38 | A6G C11U C50U U57A | < 1e-05 s⁻¹ | – | – | –
39 | A6G C11U C61U | < 1e-05 s⁻¹ | < 1e-05 s⁻¹ | – | –
40 | A6G C16A A52C | < 1e-05 s⁻¹ | < 1e-05 s⁻¹ | – | –
41 | A6G C16G G21A G51C U56C | < 1e-05 s⁻¹ | – | – | –
42 | A6G C16G G38A | < 1e-05 s⁻¹ | – | < 1e-05 s⁻¹ | –
43 | A6G C16G G41U G44C C67G C70A | < 1e-05 s⁻¹ | < 1e-05 s⁻¹ | < 1e-05 s⁻¹ | –
44 | A6G C50G A52U G59U | < 1e-05 s⁻¹ | – | – | –
45 | A6G C68U C70G | < 1e-05 s⁻¹ | – | – | –
46 | A6G G7A A12U U30C A33C C34U | < 1e-05 s⁻¹ | – | – | –
47 | A6G G7A C10G U30C A39G | < 1e-05 s⁻¹ | < 1e-05 s⁻¹ | – | –
48 | A6G G7A G13U A15C C68A C70A | < 1e-05 s⁻¹ | – | – | –
49 | A6G G9C G60C G63A C68U | < 1e-05 s⁻¹ | – | – | –
50 | A6G G9U U31C U55C C70U | < 1e-05 s⁻¹ | – | < 1e-05 s⁻¹ | –

Row | Variant | self-cleavage kobs at 640 uM GlcN6P (glucosamine-6-phosphate [1]) | self-cleavage kobs at 2500 uM GlcN6P (glucosamine-6-phosphate [2]) | self-cleavage kobs at 160 uM GlcN6P (glucosamine-6-phosphate [3]) | self-cleavage kobs at 10000 uM GlcN6P (glucosamine-6-phosphate [4])
51 | A6G G13A U54G | < 1e-05 s⁻¹ | – | – | –
52 | A6G G21A G41A A64U G66C | < 1e-05 s⁻¹ | – | – | –
53 | A6G G29C A33U G59C | < 1e-05 s⁻¹ | < 1e-05 s⁻¹ | < 1e-05 s⁻¹ | –
54 | A6G G29C G35U A42C C58G C68G | < 1e-05 s⁻¹ | – | – | –
55 | A6G G32A C67U | < 1e-05 s⁻¹ | – | < 1e-05 s⁻¹ | –
56 | A6G G32C G63C | < 1e-05 s⁻¹ | – | – | –
57 | A6G G35A U45G C67U | < 1e-05 s⁻¹ | – | – | –
58 | A6G G35C A39U | < 1e-05 s⁻¹ | < 1e-05 s⁻¹ | – | –
59 | A6G G35U C61A G63C C67G | < 1e-05 s⁻¹ | – | – | –
60 | A6G G35U G43C C71G | < 1e-05 s⁻¹ | < 1e-05 s⁻¹ | < 1e-05 s⁻¹ | –
61 | A6G G35U G63A | < 1e-05 s⁻¹ | < 1e-05 s⁻¹ | – | –
62 | A6G G35U U55G G63C | < 1e-05 s⁻¹ | – | – | –
63 | A6G G40U | < 1e-05 s⁻¹ | < 1e-05 s⁻¹ | < 1e-05 s⁻¹ | < 1e-05 s⁻¹
64 | A6G G41A | < 1e-05 s⁻¹ | – | < 1e-05 s⁻¹ | –
65 | A6G G41A U46G C67U | < 1e-05 s⁻¹ | < 1e-05 s⁻¹ | – | < 1e-05 s⁻¹
66 | A6G G44C G66U | < 1e-05 s⁻¹ | – | – | –
67 | A6G G59U A64C | < 1e-05 s⁻¹ | < 1e-05 s⁻¹ | < 1e-05 s⁻¹ | –
68 | A6G U30A A39U G60U | < 1e-05 s⁻¹ | < 1e-05 s⁻¹ | – | –
69 | A6G U30G A36C | < 1e-05 s⁻¹ | < 1e-05 s⁻¹ | – | –
70 | A6G U31A A36G A48U | < 1e-05 s⁻¹ | – | – | –
71 | A6G U45C A48G | < 1e-05 s⁻¹ | < 1e-05 s⁻¹ | < 1e-05 s⁻¹ | –
72 | A6G U57A C68G | 7.18e-05 ± 2.3e-05 s⁻¹ | – | – | –
73 | A6U A12G C16A G40C G44A A48C A53U | < 1e-05 s⁻¹ | – | – | –
74 | A6U A12U G43U G63U U65C | < 1e-05 s⁻¹ | – | – | –
